B1: GBRAP_35_5561 (protein)
chain: DSDDTIAEMMVNTIEDLTEAVADIDPADLKTITEQLAKSTLEVIKEIKDNKENLERILKALEALKKAIEARGLDDPNLKAAADAVKKAIEEAKKAIKAAE
B2: GBRAP_78_6626 (protein)
chain: EVKEKLEKALKKVSEAATLATKSPEEEAIDILDHLIDAFEYIEEAIEKGGDLEELEKALKHLEEAKKLVEAQKDPKYEPLLKLIEEAIKLLKEAIKELKK
B3: GBRAP_128_3470 (protein)
chain: GTEEAKEWTREVMEKMETADEEEFRKLATELAERLLTLPVEEVEAAVEVIEEHLPKLSAEKLEILADVLEKAMPKATPEKAALFADVISEALLLAEELEE
B4: GBRAP_43_5796 (protein)
chain: SEEWVEGAFDFAETALETPEITDETKARIVVDAVEIAIDEGLLTPEKLKALLEKLRAAVSPEVAVRALEEIEAIAEKEGAPQELLDVIRAARAAAEAELA
B5: GBRAP_80_6821 (protein)
chain: LEEELKKALEELKKIDPEIAEIVKEIVEIAKELGVPLEEILRYTKAIVELAKIDKEKALELAKRTLEELKKEKKEGDKEGALAELVDGESEALLKVEELE
B6: GBRAP_160_4136 (protein)
chain: KEELEKLIKEIRETAEEALKMIEGETPEEAKVIAKVALGDIVMLVDTSEAVSDEVEDEVGAIADAAAAELDANPDLTVEEIKELLREATEKVVAVLEKEM
B7: GBRAP_150_3911 (protein)
chain: DLEELLTVVDTLIDLLEAILDGEWSLLPHAIKVAKHAVELAKELEEEIKKLAEEMLEKLEKAKKLKEEGGKEEEIKKEVKEALELAEKLRKLLEKLIKEK
B8: GBRAP_80_6811 (protein)
chain: AEEELERALREIAELDPELAERLRRIVEEARAAGVPVEVLAELARAVLELLKVDKELAREALEELEEELDEELALGDTARVEATLRVHAGQMLLEVEELE
B9: GBRAP_52_5985 (protein)
chain: MEEEAKRLAEELVKLMLAGKEEEARKLMEEIAETKSQEFIMLVLEKLAEMAKTATPEEIDAIVDTALMLGDIALEAGFDEAEVDDGEARVAAAAVEALAA
B10: GBRAP_11_2611 (protein)
chain: KKEILKKMAELAEEAARVLEELLERGVEDEELRRKARELLEELAELVKKYGDEADKKLVEVALELLREAEEDPENAEEYWRQLLAALRVLSGDYLLDIEE
B11: GBRAP_117_2599 (protein)
chain: SEKLKKAEELAKELVELIVEALEKKKELSPEEAKKLEEETLKKATELVEEMLSLVSEEEVQELIAEQLQDLDPETRVEVWILFEEALAEAEEKRKKEEAE
B12: GBRAP_43_5768 (protein)
chain: SKELVEGAFETAELMLEDPSISEEQKVKAIIAAMELAADEGYVDEELLKKVVELAGKTLSKESLEKILEAAKKIAKEYPEAKKEFEEAAKLLEKYIKEKE
B13: GBRAP_80_6780 (protein)
chain: AEERIEEAIREVEELDPEIAERLRRILEELLAKGASPAVLEAFAEAVEAIAEALKLGLREEAREAVEELEEAAEEEDEANRLALLAGIAGELTLEVEEAE
B14: GBRAP_52_5889 (protein)
chain: SLEEAVKKLKEAVKAMAAGDKEKAEAILKEIVENFDEETILAAVEKLAEEVKTKSLEEAEAFYETALLLAEILEEAGKSEEVASYIEAIAGGTLYKIEQK
B15: GBRAP_11_2875 (protein)
chain: SKEATKKMLKLAEELAKALKKLLKEGVDNEKLREEIEKLVEELSKLVEEHGDEADKKLVEILKEEVEKSKEDKENAEEYVKHALAIAEVLAGQYLLKLEE
B16: GBRAP_80_6839 (protein)
chain: DRARLEAALARLAELLPELAPELRATVDRLLAAGVPVAVLADYVEAIVELAELDPEKARELLREAIEEVNELLAEGDLEGAIAVVRGYAGDALVEVEELE
B17: GBRAP_52_6124 (protein)
chain: MEEEARKLVEEIIKLVKEGKEEEARKLAREIVETKDDEFLELVADELAELIKKASEEEQEYLEKAAEILAEAIEEAGRDEALADYVLSRAAAAAYEKELE
B18: GBRAP_166_4966 (protein)
chain: MEEEIKEEFKKYLEELKEKMKKANEEEKLELLAEAAEKLREAKEAGVSRETLRELIRYLIELAKEVGLTDSQVYGALSILADLDEEEIDILEEEIAEVRA
B19: GBRAP_160_4262 (protein)
chain: SPELDALIADLRADRDEILALVDEISAEEVRTLAVTELGSHLLEAIELGIVTDEQEEQLAAIIDALEAELKANENASAETLKAIITEHFDAAIALLEKAK
B20: GBRAP_53_6404 (protein)
chain: SMEEIERLKEEIRKLTEKATKADDETRAKLVAEIGKLLKKLKEAGMPEEEIEKLAREVAEKLKAAGAPDSHLVALAKALEELGLEEATAEVGELLVEDLE
B21: GBRAP_95_7057 (protein)
chain: EDDRLAFEDLAEVTDTAVELGDAEAAERSAAELVRLHAEHGPLPLPESISLEARKLILEVAVRTADPATVEALLAALLAAARTAEERAALRAHYAALRAA
B22: GBRAP_52_6177 (protein)
chain: MRERMRRLVEEIVALAKAGDREGAEALIRELARTLDEEELREFAREFAELVLAAPVEELDLLAEVLDLIEDIFEEEGVDPRIIAYLRGEFARAAYERELA
B23: GBRAP_11_2720 (protein)
chain: KSEELKKLAEEAEKLAKEVEKLIKEGPKKEEIKKLQKKVEELLKKAKEIGADEDVLKTLEIAAENLKKAIEKPENVKQYLKNAQAALRVASGQLLLEAEE
B24: GBRAP_139_3709 (protein)
chain: SELEEKIKEARELTRKTKENPEESIKKIVELLLSVSEEDLEKVVKAIAEELSKLPLDEAEKLADLLLEEVEKESEDEDKINIVEAVLNGALARKAYEEEL
B25: GBRAP_125_3066 (protein)
chain: ADAAALADLATLAKALGFSDEDVAELVELAAASSFRQTLYAIFLAEGYEEVADLVEKITEEQAKAVLAEVTAELKKNPNLSKDEVVALTKAALEKAIAAA
B26: GBRAP_52_6196 (protein)
chain: MRERLRRLAEEIVELVRAGREEEARAMMREAAKTLSEEELELLGEEFAELARRARPEDFDAVFRAAEMFADVLEEEGHDEVLADDLLARVAAALYERELA
B27: GBRAP_139_3689 (protein)
chain: SALEEKIARARELTERAVAEGEPAIRELAAFLNSLSPEEREVAVEAIGERLLPLPYDKAEALFERLREVAREELGDEDLAEMIEIEENRTLARIAVREEA
B28: GBRAP_166_4928 (protein)
chain: MAEERVEEARERLREVIEEGKADPSLTDAQITVDLAYELAEILEEEDDEEVKLEIVREGLELAKEAGLDPRRLATLTASLAGFDDETREKIDEIVEEILK
B29: GBRAP_160_4633 (protein)
chain: MESLEDMLEIIDEYTEIALEYIEEGDLDGALNALRMMVGDLVMEASEDPRFSDEDVDKLAELGDEGVAEFEAARDESPEELKRLVLEHAERLKKLVKEFY

Over roughly 4,500 sequences, “median log2 fold change of GCK-ALFA target abundance (FLAG IP / Myc IP barcode read proportion)” has its median near 0.078; the lowest 2% begin near -0.6. Some of the results follow.

Sequence of GABARAP, O95166 (O95166 whole entry, the tested form may be a part): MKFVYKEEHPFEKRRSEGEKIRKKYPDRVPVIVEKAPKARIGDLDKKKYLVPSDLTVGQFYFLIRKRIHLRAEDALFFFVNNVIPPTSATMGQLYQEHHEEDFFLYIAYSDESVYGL

In the assay the target is GABARAP, O95166. The assay can be described thus: median log2 fold change of GCK-ALFA target abundance (FLAG IP / Myc IP barcode read proportion) (log2 ratio); each designed protein is fused to an ALFA-tag nanobody in HEK293 cells to bring the named protein to FLAG-tagged glucokinase (GCK); Myc marks an untargeted standard; higher = target protein stabilised (more abundant). Conditions: target protein: 3xFLAG-MCP-GCK-ALFA reporter; HEK293 landing pad (RPLP). The method in brief:
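An ALFA-nanobody-fused binder library was recombined into HEK293 landing-pad cells and induced with 2 μg mL^−1 doxycycline. Cells were transfected with a plasmid expressing a FLAG-tagged target and a Myc-tagged standard. After 48 h, lysates underwent anti-FLAG and anti-Myc immunoprecipitation, and circular RNA barcodes were reverse transcribed, amplified and sequenced. Target abundance is the per-binder median log2 ratio of FLAG to Myc barcode read proportions. Barcodes needed ≥10^−7 proportion in both replicates, binders ≥3 barcodes per replicate, and a 10^−6 pseudocount was added; the two replicates were pooled.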
Turning to B1, the “median log2 fold change” value is 0.135. Regarding B2, the “median log2 fold change” value worked out at 0.0216. The figure for B3 is 0.251; for B4 it is -0.126.

As to B5, the “median log2 fold change” value stood at 0.0645.

As for B6, the “median log2 fold change” value came to 0.0765. For the molecule B7, the “median log2 fold change” value is 0.268.

On to B8, for which the “median log2 fold change” value is -0.237.

Take B9: the “median log2 fold change” value was -0.163. For the molecule B10, the “median log2 fold change” value was found to be 0.0469.

Regarding B11, the “median log2 fold change” value was determined as 0.216.

With B12, the “median log2 fold change” value turned out to be 0.546. Consider B13, for which the “median log2 fold change” value stood at 0.000831. For the molecule B14, the “median log2 fold change” value was determined as 0.197.

Consider B15, for which the “median log2 fold change” value was 0.183. The figure for B16 is 0.152; for B17 it is 0.0535; for B18 it is -0.12. Regarding B19, the “median log2 fold change” value was 0.175.

Take B20: the “median log2 fold change” value came to 0.267. Take B21: the “median log2 fold change” value worked out at 0.256. On to B22, for which the “median log2 fold change” value was 0.0957.

As for B23, the “median log2 fold change” value is -0.0462. Consider B24, for which the “median log2 fold change” value is 0.392. For the molecule B25, the “median log2 fold change” value was -0.0841. Regarding B26, the “median log2 fold change” value was -0.049. Turning to B27, the “median log2 fold change” value was 0.223.

As to B28, the “median log2 fold change” value is 0.0543. Consider B29, for which the “median log2 fold change” value is -0.356.

These data come from the supplement of paper PMC12632987.
